This is an account of results in PubChem BioAssay AID292 (DTP/NCI, 2004).

The structures appear in SMILES notation. Inconclusive results and toxic doses are left out. The source holds more than one record for some entries. The list is limited to them. The source may hold further records. The values listed for one entry do not match, cause unknown; some may be repeats, others may stem from another dose, organism or construct than stated.

In the experiment the test system is B6C3F1 mice, ip Sarcoma M5076, median survival T/C. The experiment in a line: NCI In Vivo Anticancer Drug Screen. Data for tumor model Sarcoma M5076 (intraperitoneal) in B6C3F1 mice. Conditions: endpoint: median survival time, higher = longer survival. As for the experimental part:
The antitumor activity of compounds was measured in mice bearing transplantable tumors. Survival or tumor size were measured and the results are expressed as the measurement made in the treated group (T) divided by the measurement made in the vehicle treated control group (C). The tumor model used in this assay is Sarcoma M5076 (intraperitoneal) in B6C3F1 mice

Regarding `CCOC(=O)Nc1cc(NC(C)/C(=N/O)c2ccccc2)c([N+](=O)[O-])c(N)n1` (stereo unspecified), the T/C (dose: 800.0 mg/kg/injection, schedule: Q04DX004 (ip), vehicle: Klucel (hydroxypropylcellulose) (HPC)) is 119 % of control and 161 % of control. For `COC(=O)C12OCC34C(CC5C(C)C6=CC(=O)OC6=CC5(C)C3C(O)C1O)OC(=O)C(O)C24` (stereo unspecified), where the note is “dose: 0.25 mg/kg/injection, schedule: Q04DX004 (ip), vehicle: Klucel (hydroxypropylcellulose) (HPC)”, the T/C is given as 116 % of control, 119 % of control, 155 % of control. Consider `CN=NN(C)C(=O)NC`, for which the T/C (dose: 139.0 mg/kg/injection, schedule: Q04DX004 (ip), vehicle: saline) was 92 % of control and 183 % of control. For the molecule `CO[C@@]12[C@H](COC(N)=O)C3=C(C(=O)C(C)=C(N)C3=O)N1C[C@@H]1N[C@@H]12`, the T/C is, setting by setting: (dose: 2.0 mg/kg/injection, schedule: Q04DX004 (ip), vehicle: saline) 93 % of control and 176 % of control; (dose: 4.0 mg/kg/injection, schedule: Q04DX004 (ip), vehicle: saline) 86 % of control and 198 % of control.

For `COc1cc2cc(c1Cl)N(C)C(=O)C[C@H](OC(=O)[C@H](C)N(C)C(C)=O)[C@]1(C)O[C@H]1[C@H](C)[C@@H]1C[C@@](O)(NC(=O)O1)[C@H](OC)C=C/C=C(\C)C2`, the T/C (dose: 150.0 micrograms/kg/injection, schedule: Q04DX005 (ip), vehicle: saline) is 121 % of control and 159 % of control. As to `COc1cc2c(c3c1c(=O)c1ccccc1n3C)C=CC(C)(C)O2`, the T/C (dose: 21.6 mg/kg/injection, schedule: Q04DX004 (ip), vehicle: saline with Tween-80) is 110 % of control and 151 % of control; the T/C (dose: 36.0 mg/kg/injection, schedule: Q04DX004 (ip), vehicle: saline with Tween-80) is 110 % of control and 159 % of control; the T/C (dose: 60.0 mg/kg/injection, schedule: Q04DX004 (ip), vehicle: saline with Tween-80) is 110 % of control and 165 % of control; the T/C (dose: 100.0 mg/kg/injection, schedule: Q04DX004 (ip), vehicle: saline with Tween-80) is 110 % of control and 164 % of control. For `CC(C)(C)CCC(Br)CBr` (stereo unspecified), where the note is “dose: 25.0 mg/kg/injection, schedule: Q04DX004 (ip), vehicle: suspension in saline”, the T/C is 95 % of control and 172 % of control.
